In all, about 4,500 sequences were measured (“median log2 fold change of GCK-ALFA target abundance (FLAG IP / Myc IP barcode read proportion)”: median about 0.078, lowest 2% from about -0.6 on). Some of the results follow.
B1: GBRAP_184_5227 (protein)
chain: KLVNVAVEAETAEEAIEKSDKVIAEAKAKGEEVNLYVIGKNLSIEEVEKVAKYLSEKKKAGEIKDATLVVEDEKSEEEIDKLVEIADKYGIKLVIALSEE
B2: GBRAP_78_6597 (protein)
chain: EVEELLEKAIEELDKASKLAKQLPEEESNELLDELVDAMSYILEAIENGFDLELLEKALKKVEKAIELAKKTNHPESPKIIEELEKAKKYLEEAIKLVKK
B3: GBRAP_11_2645 (protein)
chain: KKETLEEAAKLAKEAAKAVEKLIKEGVDNEELIKEAEKLLEELTKLTEEHLSEAHKTDVEVAKELWKKFLEDKENAEEYAKQLLAALRVLEGNFLLERDE
B4: GBRAP_184_5069 (protein)
chain: ETLHETLEVRDLAEARAKMAALAARLADFRGDLVVHVEMPEADKEIARAVLDGLRAMLDAGYVTSATVGFDAEFSEELADFAIAEADRAGVKVVLALSDE
B5: GBRAP_78_6650 (protein)
chain: EVEELLEKALEVLGEAARQALKLPEEVRNEVLDYLVDAITYLHEAIEKGGDLEELEKALEYAEKALKIAKKEDTEEAKELAKLLEEAIKLLKEAIKKVKE
B6: GBRAP_160_4322 (protein)
chain: KEELEELEKRIKEIAEEAKKMIKGQSAEEKITIVKVALGDIILEVESNPAVSDELEDKVAEIADAAEAYLDAHPDLSEEEVIALLEEAVKKILELIKEEK
B7: GBRAP_160_4330 (protein)
chain: SERFEKLKEFIDEVFEEAKELIEGESLEQIKVIIRGAFGEIAMEFAEDESISDELIDFVLEIEDETLKTLDENPDLSLEEIKKLIEEAREKIIEELEKEE
B8: GBRAP_160_4631 (protein)
chain: SEKLKKAKEAIEEAEKFVLSLIPEVNVEQAANALETEFGSVILELLEEGLISEETADKMMEVVRKARDYMLAHPDLTEEELKALVRKTAEEIKKILEKEY
B9: GBRAP_43_5751 (protein)
chain: MEEIIEGHIDFAKLAAEDENISEEQKLKIAKDTFEIVADENIKLPEKLNELTKALAKSLSLEQLKELKKHLKELSKKYPELKEMFDASIKIIEEAIKKKE
B10: GBRAP_14_3810 (protein)
chain: KEKLIKEIEKILKELEKELVEELGLDEKEVKKLVEKAIEEIKKAIEEKENPEEEIEKIFDKLREEIAKLAAKLGADVEAGARALVDDAEYEVDEAIEKYK
B11: GBRAP_139_3739 (protein)
chain: MKEEEIVEEAREKALELKDDPDALADYIVERIKAVDEETAEKIVRAVMEALKDLPVDKILEIVDKVLEKLEEAGVSEDKKDVAEAELNGGLARHAAAEEA
B12: GBRAP_95_7062 (protein)
chain: AEDQEAAIDDALAYAARVELGDESAVPKLAAALVEALKLGVLKEVAAELDDDTLLKALRKAAETASPETVRALIDAALEATGNEALAAEARAYLEALLAA
B13: GBRAP_125_3036 (protein)
chain: SKEQEVADLGTLAKALGYSEEDVAELEELARKHGVKGTLIALLLAEGKEEIAELVEKLSEAEVVAVLKELAAELAANPDLTPEEVIERLKELVEKAVAAS
B14: GBRAP_160_4325 (protein)
chain: SEEYEKLIKEIKEITEEAIKMIKGESKEQRITIVKVALGEIILEVEENPAVSDELEEKVAEIADKAEAYLDANPDLSEEEVIKLLKEATEKIIKLIEEEA
B15: GBRAP_160_4312 (protein)
chain: MEEIEELKKRIREIVEEAIKMIEGESAEQRKTIARVTLGEILLEAEENPAISDELLDEIAAIVDAAEATIDANPDLTEEELKALLRATEEAILALLDKSL
B16: GBRAP_125_2968 (protein)
chain: ATEEELENLRLLALALGLSEEEAEEAAELARASSIRGTLYAIAAGLGYDELAELLAEVTEEEAREILRRTAEYIKAHPDATPEEVVEYMTKLAKEALAAR
B17: GBRAP_166_4916 (protein)
chain: SMEEKLAEAKARIAKLVAAMPKTDEAKQVELAIEIAEVFEELEKAGASEEELLELWRFLAEELKKAGLDVERIMAIVAAAAGLDEEEMEKVDEIVKEVLA
B18: GBRAP_160_4411 (protein)
chain: SEELKKIAEEIYEDVKETLEALLEMGDIDPEQAAGLLEGTILNGIFESEKLTEEQEEQLEKLAEELAREARELLEREGRLTEEIKERLLKLLKEGLEKIL
B19: GBRAP_74_6528 (protein)
chain: DEELLKKLKEAAEAGDVDKAVELAKEIIKNGSKEAIEEAAKILIAFVKKNIDKLTKEELLKLSDTLAELADELMERGGDNEVVNAVAQAAVELDKKAEAL
B20: GBRAP_184_5233 (protein)
chain: KVLEREIEAENAEELRRKLEEVREEARRAGARVRLIIKVKELTKEKAEVLAEQLRRMAAEGLIDLVEVESSTRIEEENVDLLVAAADEAGVRLVLAMEEE
B21: GBRAP_14_3771 (protein)
chain: MEEKEKIIREEAKEIVELLGEIVPEKAEEFRKIVEEVTEKTIKRARETGNWDEALEEGEEELVKRIEEVSKDLPEETRAELVAVVRVGMGEALLEIDELE
B22: GBRAP_52_6302 (protein)
chain: MREEARRLVREIFALVLAGDREGARRRLREFAETANDEEIRVFAEELVRLAREAPLEQLDAVFELAELASEALEEAGKDEVLADDILARTAAAIYEKEQA
B23: GBRAP_160_4508 (protein)
chain: SKTLEEIKKEIEEAREEIKEEIEEGTVEEAIIVAAVELGEVIMEIIEDESMSDEAEDKAAEIRDELIKKLEENKDASVEELKKIVDELTEKLIEELEKLS
B24: GBRAP_52_6259 (protein)
chain: MREEMRKKAKEILELVKEGKLEEARALAKEIAETSNEEELEIFIEEMAELARESSKEEIEDLIKLAELVAEELEEAGKPEEIVSLFEARVYGAIYETEQK
B25: GBRAP_160_4019 (protein)
chain: MEEIEKLKKEIKELLEETKKAIEGLTPEERLTLFRGMAGEILQLAFESPAVSDETEDKIAEIADEFIEEVEANKNASLEVLKALIDDFEKRIFELLEEEK
B26: GBRAP_184_5049 (protein)
chain: KIKEEVIEAENLEELKEKLEELKEKMKNFKGELIVLVKLPEFTLEMVTLILDTLREIKEEGYVEKVTVGLDGKMSEEVVDHALKLADEAGINVVIALEEE
B27: GBRAP_160_3971 (protein)
chain: SEEIEKLKKEIEEIFEEAKKLIEGETYEERLTIVRVAVGEVILLVDSNPLVSDEAEDKVAAIGDALVAELDANPDLTEEEIKKLIEKALEEIKKVLEKDA
B28: GBRAP_35_5517 (protein)
chain: STEKTATEMLVATIEDLVLAVPDMPVEQAAAIAEQLIESALKLAKEFKNDIESLKRLAEALERLLEAIRRHYPDSPLAREVAERIEEAIKEIKKLIEEAK
B29: GBRAP_128_3375 (protein)
chain: VNEEFLKEIEELVEKMLESSVEEVRELTKKIVELLSKASLEEQEAAVEIILEKLPEFSVEKLEAIADVLREERKKASPELQELLADVEVEALNEAEEKEE

What follows are binders tested against GABARAP, O95166 (assay: median log2 fold change of GCK-ALFA target abundance (FLAG IP / Myc IP barcode read proportion) (log2 ratio); each designed protein is fused to an ALFA-tag nanobody in HEK293 cells to bring the named protein to FLAG-tagged glucokinase (GCK); Myc marks an untargeted standard; higher = target protein stabilised (more abundant)). Conditions: target protein: 3xFLAG-MCP-GCK-ALFA reporter; HEK293 landing pad (RPLP).
Outline: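 Binders fused to an ALFA nanobody were recombined as a library into HEK293 landing-pad cells, which were induced with 2 μg mL^−1 doxycycline and then transfected to express a FLAG-tagged target and a Myc-tagged standard. After 48 h, circular RNA barcodes recovered by anti-FLAG and anti-Myc immunoprecipitation of lysates were reverse transcribed, amplified and sequenced. Each binder's target abundance is the median log2 ratio of FLAG to Myc barcode read proportions, from barcodes present at ≥10^−7 in both replicates, binders carrying ≥3 barcodes per replicate, a 10^−6 pseudocount and pooled replicates.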

Sequence of GABARAP, O95166 (O95166 whole entry, the tested form may be a part): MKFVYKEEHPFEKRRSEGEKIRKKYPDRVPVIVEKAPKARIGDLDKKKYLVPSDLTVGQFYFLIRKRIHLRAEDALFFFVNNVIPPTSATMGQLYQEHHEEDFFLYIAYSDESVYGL

Binder | median log2 fold change
B1 | 0.216
B2 | 0.108
B3 | 0.24
B4 | 0.000447
B5 | -0.129
B6 | 0.161
B7 | -0.166
B8 | 0.0849
B9 | 0.358
B10 | 0.188
B11 | 0.0687
B12 | 0.253
B13 | 0.104
B14 | -0.203
B15 | -0.444
B16 | -0.479
B17 | 0.103
B18 | 0.0595
B19 | 0.209
B20 | 0.136
B21 | -0.12
B22 | 0.128
B23 | 0.0204
B24 | 0.0501
B25 | -0.0414
B26 | 0.104
B27 | -0.204
B28 | 0.199
B29 | 0.132

Reference: the supplement of paper PMC12632987
